Measured values: PubChem BioAssay
Inconclusive results, whose numbers are uncertain, are shown with a selection of clear calls. Active and inactive are the calls of the source.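 How the source made its calls: active means viability at or below 27.92% in each of two runs, the all-compound median minus 4 SD; inconclusive means no clear call, values can overlap the other calls; inactive means the rest.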

Assay: viability of PTEN-null HCT116 cells – cell-based, HCT116 clonal line, CellTiter-Glo, pilot screen (AID 824);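 further: 0% = 20 µM Hyamine control and 100% = vehicle cell control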
Details: HCT116 PTEN-deleted viability, 60 h, at 10 µM, hits give low values

Which viability does the source give for `Cc1ccc(C(=O)N2CCN(C)CC2)cc1S(=O)(=O)N1CCCCC1` here?
Its viability is inconclusive: 89.9%.

Which viability does the source give for `O=c1[nH]c2c(s1)C=Nc1ccccc1N2` here?
The viability was inactive: 91.6%.

With `Cc1c(NC(=O)CCC2CCCCC2)c(=O)n(-c2ccccc2)n1C` as the molecule, how does the viability read?
The viability was inconclusive: 102%.

With `C(/CCc1ccccc1)=N\n1cnnc1` as the molecule, how does the viability read?
The viability was inconclusive: 102%.

With `Cc1nn(CC(=O)Nc2cccnc2N2CCOCC2)c(=O)c2ccccc12` as the molecule, how does the viability read?
The viability was inconclusive: 101%.

For `COCc1cc(=O)n2c(-c3ccccc3OC)n[nH]c2n1`, which viability is on record?
The viability was inconclusive: 99.2%.

For `CC(=O)c1ccc2c3c(ccc(O)c13)CC2`, which viability is on record?
The viability was inactive: 88%.

Which viability does the source give for `Cc1c(C(=O)N(C)Cc2ccccc2)oc2ccc(S(=O)(=O)N3CCCC3)cc12` here?
The viability was inconclusive: 69%.

For `CN(C)CCCNC(=O)CC(c1ccc(F)cc1)c1ccco1` (centres undefined), which viability is on record?
The viability was inconclusive: 86.5%.
